Reference: the supplement of paper PMC11417369
The other results are listed elsewhere or left out.

System: PfAP2-HC AP2 domain (GST-tagged)
Test: gcPBM binding intensity (ln(normalized median fluorescence intensity)); higher = stronger DNA binding
How it was run: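 Probes on an Agilent 4 × 180k array were primer-extended, double-stranded and 36 bp long, taken from intergenic genomic regions, with negative controls added. GST-tagged P. falciparum DNA-binding domains from E. coli, about 25 μg on average, were applied to the array for 1 h in 1× PBS containing 1% milk, 0.2 mg/ml BSA, 0.5% salmon testes DNA and 0.03% Triton X-100. Binding intensity, obtained after Alexa488 anti-GST antibody detection and a 488 nm scan, is the highest Masliner-normalised natural-log median intensity across replicate spots of either probe orientation.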

Sequence | gcPBM binding intensity (ln)
TTTTCTTGTAGTATAACAAAATATAGTAATATATAT [GTGCAC_negctrl_site609] | 9.39
AAAAAAAAAAAAAAAACACACATTTATAGTATATAT [CACACA_site1194] | 9.74
GATTTATTTCATATCACACATTTTGGCTATTTTGTG [CACACA_site5793] | 9.73
ATGAAATATTTATTTGTGCACTTAATTTGTTGGAAA | 9.41
AATCCTTCATATGTAGTGCATATTAACAAAATAAAA [GTGCAC_site9500] | 9.37
CCATTTGGTATTATATGTACATATAATTTTTTTTTT [XGTACX_site157] | 9.65
TCCAATTCTTTATTTTGTACACATTATGTGCATATG [XGTACX_site6290] | 10.1
TTATAAGATTTATGTACACACATATACACAGCTCTA [CACACA_site6481] | 9.95
AGTATTATATATATATGTACATAATATACATATATA [XGTACX_site8514] | 9.6
TCCTAATGCTACCACACACACAAAAACAAATAATAA [CACACA_site2610] | 10.2
GCTATAAATACAGACGCACACATATACATACAGATA [CACACA_site5778] | 10.3
TGTTATTAGAAAAATGCACACCAAAAAAAAAAAAAA [CACACA_site8802] | 9.58
ATATACATAATATATAATATAAATATATATATGGAA [CACACA_negctrl_site906] | 9.7
TGTCATTCCTCTTATTGTACAAAAATATTATAATAT [XGTACX_site1134] | 9.51
TATTAAAATATTTATACACACATAATTTTGATAAAT [CACACA_site4486] | 9.56
GTTATACGCATCAACACACACATACAACGTGGTGTA [CACACA_site1188] | 9.91
ATGGAACTTAAAAATTGTACACATAAAATGGAGAAG [XGTACX_site1823] | 9.76
ACATATTTATATTCTACACACTTATACTATAATACA [CACACA_site7204] | 9.84
TAATTAATTTACATTTTAATTTTATACAAAATTTAT [CACACA_negctrl_site830] | 9.52
TAGGAGAAAAAAAAAAGTACCCACAACTATTATACT [XGTACX_site8195] | 9.59
TGGTAATATCGATTCACACATATCAAAATAAAAAAA [CACACA_site4196] | 9.54
AACATATTAATGTACACACACCCACGCACAAACAAA [CACACA_site7320] | 10.4
TATATATATTAACTTGTGCGCAAAAAGATATAATTT [GTGCAC_site9672] | 9.77

Sequence | gcPBM binding intensity (ln)
AATATTTTGATGTGTACACATTAATACAGTTTTACA [CACACA_site5711] | 9.73
TAGGATATTGAATAATGTACTTTATATATAATATAA [XGTACX_site7828] | 9.49
ATATGTATGTATGTCTCAAAATTTCATATTATATTA [CACACA_negctrl_site784] | 9.59
AAGAAATAAAAAAAACGTACATATATACATACATAC [XGTACX_site3980] | 9.82
AATATATATATTAAATGTACATTACATAATTATATA [XGTACX_site3450] | 9.59
TAAATGAAAATATGTACACACTTGAAAACTTTTATG [CACACA_site7388] | 9.75
TGCAACAAAATAAACACACACACACTAGCACAAAAA [CACACA_site5805] | 10.5
TTTTTTTTTTTAGACACATGCATTTTTATAATTTTC [TGCATGCA_site843] | 9.72
TGTATAACCTGTGTTACACACATTAAAATTTATATA [CACACA_site4449] | 9.7
ATAAATGTGTTTATTTAACACACAAAAGAAAAAATA [CACACA_site8589] | 10.1
GATATTTTTATTTGTTGTACTTAAGATAATAAATGA [XGTACX_site2891] | 9.35
AAAAAAAAAAAAATACGTACACAAAAAATTGCAAAG [XGTACX_site5663] | 9.81
AATATATTAAAAAAGCGTACAAGAATTGGAAAATGG [XGTACX_site6576] | 9.83
CATACATAAATATAAACATGCATATATTTTTTTTAT [TGCATGCA_site616] | 9.61
ATTTTAATAAAATATGTACACACATACACCCATATA [CACACA_site8326] | 9.95
TGATATCTTAAGAAATGTACAAAGATATAACCATTT [XGTACX_site1913] | 9.41
TAAATAAAAAAAAATACACACATCTATATAAAATAT [CACACA_site3774] | 9.89
GTATCAAAAGAATACACACACACATACCTATAAATA [CACACA_site7737] | 10.8
AAAGGAAAAAAAGTAGCACACAAATATTTATAATAT [CACACA_site8772] | 10.2
AAAAAAAAAACACACACATGCACATCATATTATATA [TGCATGCA_site133] | 10.2
ATATATTATCAACTTACACACAGAAAAATATAATAA [CACACA_site293] | 9.89
TTTAAAGGTGATAAAACACACGATTTAGAAATGTAT [CACACA_site3161] | 9.9
GATATGTAAATAATATGTACATATTTATATTGTATT [XGTACX_site4052] | 9.76

Sequence | gcPBM binding intensity (ln)
AAAAAGAATGTGAACACACACATTGAATATAATTTA [CACACA_site1262] | 10.4
TTAATACAAATAAAAAGTACAAGTATCGAACTACTA [XGTACX_site6308] | 9.64
TTTTTAGTAACATATAGTACATATATATATATATGT [XGTACX_site4780] | 9.7
TTATTTTTTCTTCAAATGTGAATTATTCATTTATTT [TGCATGCA_negctrl_site545] | 9.71
ATAATATGAAACTCGTACGAGGTTGTCCCAAATATA [CACACA_negctrl_site1350] | 9.84
TTAAAAAACATTTGAACATGCAATTGTATATGTAGA [TGCATGCA_site334] | 9.62
AAACAAAAGGAAAACATATATATATTAAATGTATAT [CACACA_negctrl_site1663] | 9.75
TGAAATTAAATATATACACACATATATATTTATATG [CACACA_site3516] | 9.66
GCAAAATAACAATGTTACACTTATAAAATTGAGGCA [GTGCAC_negctrl_site68] | 9.65
ATTTATATTCCAATATGTACATATTTTCGTATAACC [XGTACX_site8507] | 9.74
TTTTTTTTTCTCCATACACACTTGATAAAACTTTTT [CACACA_site4512] | 9.64
ATTACAAATTCTTTCAGTACATATAAAGAAAAAAAT [XGTACX_site7786] | 9.57
ATTTAGAATGTTCCTACACACCAAATTTAAGGGTGC [CACACA_site5320] | 9.63
ATATATACCTATATTACACACTTCTTATTCTAAGAA [CACACA_site7421] | 9.7
ATTGTTACATAAAATGCACACTTTCAAATATGCTAA [CACACA_site5600] | 9.65
TATACACATATATATAGTACATATATAATTTACTAT [XGTACX_site1849] | 9.76
AGTATTCTAATTTTTAAACACACAAATATAAATAAG [CACACA_site9029] | 9.64
AGGGTTCATATATTAACACACACATACATATTATAT [CACACA_site8959] | 10.1
TTCATATATAATTGTACACACAAAAACGACATTGTG [CACACA_site2074] | 9.78
GGAAATAAAATTAAATGTACGAAAACTCATTAAATT [XGTACX_site4274] | 9.58
TAAATATGAGGGAACACACACATGATATATAAATTC [CACACA_site2400] | 10.1
AAACGGGAGAAATAAAAATAAAAATAATAAAACAAA [XGTACX_negctrl_site586] | 9.67
TATACTCATGGACACACACACATACACAGACATACA [CACACA_site5024] | 10.4

Sequence | gcPBM binding intensity (ln)
AAATATCAACTCAAATGTACAAATCACAAAAATGTA [XGTACX_site5344] | 9.64
ATATATGATGTATTTGTGCACATATATATATTATTA [GTGCAC_site9471] | 9.78
TAAATAAAAAGACACACACACATATTTATATTTATA [CACACA_site7135] | 10.4
ATATTAAAAAGGAAATGTACGTAATGAAGATCAAGT [XGTACX_site3138] | 10
TAAATTGGTGCAAAGTGTACATATATATCTTTCCTA [XGTACX_site5458] | 9.61
GAGAAAAATATATACACACACATAAATATATACATA [CACACA_site1895] | 10.4
AAAATTATTTAGTAAGTGCAAAAAAAAAAAAAAAAA | 9.28
AATTTGATTATAAATTGTACATATATATATTAAAAG [XGTACX_site5461] | 9.67
ATTGTTAAATATAATACACACGTTTTTAAAAATATA [CACACA_site5239] | 9.64
AAAAAAAAAAAACATACACACACATATATATATATA [CACACA_site8452] | 10.7
TAAAAATAAATAAATACATGCACCAAAAATAAATTT [TGCATGCA_site801] | 9.73
ATTGCCATTGTTAATGCATGTAACAATTCAGCTCAT [TGCATGCA_site56] | 9.45
TTGAGAAAAATTAATGGTACACATATTATAAGTATA [XGTACX_site6539] | 9.7
TGTATAACATTTAGGTGTACAATTATATATAATATA [XGTACX_site8131] | 9.57
TAATTGTACACATGCACACACAAATATTATAGATGT [CACACA_site6528] | 10.2
TGACATATTATTAGGTGGTCACGTCTCCACGTCAAG [XGTACX_site7943] | 9.39
AAGAAAAAAAAAAAAACACACATATATTTATTTATA [CACACA_site7042] | 9.63
TATACACATAGACACACACACAAAAAAAAAAAAAAA [CACACA_site6338] | 10.6
GAAAGAAAAAATGATGAATAGAGATCAAATCTATAT [XGTACX_negctrl_site28] | 9.6
TAAAAATTTGATCAAACACACGTTGCATAAATTATA [CACACA_site6040] | 9.73
